Here are results for 19 variants from the RNAGym collection of RNA variant scans (doi:10.1073/pnas.2313332121).

The labels stand for the following.
B1: TPR 5TU (parent)
chain: GGAUCUUCUCGAUCUAACAAAAAAGACAAAUCUGCCACAAAGCUUGAGAGCAUCUUCGGAUGCAGAGGCGGCAGCCUUCGGUGGCGCGAUAGCGCCAACGUUCUCAACUAUGACACGCAAAACGCGUGCUCCGUUGAAUGGAGUUUAUCAUG

Variants at the floor of the assay are shown more often than the library holds them.

This data set covers variants of B1. As to the kind of experiment: polymerase ribozyme fitness, log enrichment relative to wild type (log ratio); higher = more active; in vitro selection for triplet polymerase activity. Summed up:
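For each subunit of a heterodimeric triplet polymerase ribozyme, a mutant library was built by PCR and transcribed, then taken through a single in vitro selection round in triplicate. Selection involved annealing to a biotinylated primer, the partner subunit and triplets, incubation frozen at −7 °C, gel excision of extended constructs, capture on streptavidin beads and RT-PCR. Genotypes were retained after Illumina sequencing of inputs and outputs only with ≥10 input reads and ≥1 read in each output. Fitness is defined as the logarithm of a genotype's enrichment relative to wild-type enrichment, using inverse-variance-weighted averages across replicates, with the logarithm taken to base 2.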
Take GGAUCUUCUCGAUCUAACAAAAAAGACAAAUCUGCCACAAAGCUUGAGAGCAUCUUCGGAUGCAGAGGCGGCAGCCUUCGGUGGCGCGAUAUCGCAAACGUUCUCAACUAUGACACGCAAAACGCGCGCUCCGUUGAAUGGAGUCUCUCAUG [G92U C96A U127C U145C A147C]: the “polymerase ribozyme fitness (log ratio)” value is at most -4.2.

Regarding GGAUCUUCUCGAUCUAACAAAAAAGACAAAUCUGCCACAAAGCUUGAGAGCAUCUUCGGAUGCAGAGGCGGCAGCCUUCGGUGGCGCGAUAGAGGCAACGUUCUCAACUAUGACACGCAAAACGCGUGCUCCGUUGAAUGGAGUUUAUCAUG [C93A C95G], the “polymerase ribozyme fitness (log ratio)” value is at most -4.2. Under GGAUCUUCUCGAUCUAACAAAAAAGACAAAUCUGCCACAAAGCUUGAGAGCAUCUUCGGAUGCAGAGGCGGCAGCCUUCGGUGGCGCGAUAUCGCCAACGUUCUCAUCUAUGACACGCAAAACGCGUGCUCCGUUGAAUGGAGUUUAUCAUG [G92U A107U] stands -3.2. The result for GGAUCUUCUCGAUCUAACAAAAAAGACAAAUCUGCCACAAAGCUUGAGAGCAUCUUCGGAUGCAGAGGCGGCAGCCUUCGGUGGCGCGAUAUCGCCAACGUUCUAAACUAUGAGACGCAAAACGCGUGCUCCGUUGAAUGGUGUUUAUCAUG [G92U C105A C114G A142U] reads at most -4.2; that for GGAUCUUCUCGAUCUAACAAAAAAGACAAAUCUGCCACAAAGCUUGAGAGCAUCUUCGGAUGCAGAGGCGGCAGCCUUCGGUGGCGCGAUAUCGCCAACGAUCUCAACUAUGACACGCUAAACGCGUGCUCCGUUGAAUGGAUUUUAUCAUG [G92U U101A A119U G143U], -3.62. As to GGAUCUUCUCGAUCUAACAAAAAAGACAAAUCUGCCACAAAGCUUGAGAGCAUCUUCGGAUGCAGAGGCGGCAGCCUUCGGUGGCGCGAUAUCGCCAACGUUCUCAACUAUGCCACGCAAAACGCGUGCUCCGUUGAAUGGAGUUUAUCAUG [G92U A113C], the “polymerase ribozyme fitness (log ratio)” value was -2.78. The result for GGAUCUUCUCGAUCUAACAAAAAAGACAAAUCUGCCACAAAGCUUGAGAGCAUCUUCGGAUGCAGAGGCGGCAGCCUUCGGUGGCGCGAUAGAGCCAACGUUCUCAGCUAUGACACGCAAAACGCGUGCUCCGUUGAAUGGAGUUUAUCAUA [C93A A107G G152A] reads at most -4.2; that for GGAUCUUCUCGAUCUAACAAAAAAGACAAAUCUGCCACAAAGCUUGAGAGCAUCUUCGGAUGCAGAGGCGGCAGCCUUCGGUGGCGCGAUAGAGCCAACGUUCUCAAGUAUGACACGCAAAACGCGUGCUCCGCUGAAUGCAGUUUAUCAAG [C93A C108G U134C G141C U151A], at most -4.2; that for GGAUCUUCUCGAUCUAACAAAAAAGACAAAUCUGCCACAAAGCUUGAGAGCAUCUUCGGAUGCAGAGGCGGCAGCCUUCGGUGGCGCGAUAGAGCCAUCGUUCUCAACUAUGACACGCAAAACGGGUGCUUCGUUGAAUGGAGUUUAUCAUG [C93A A98U C125G C131U], -2.4. GGAUCUUCUCGAUCUAACAAAAAAGACAAAUCUGCCACAAAGCUUGAGAGCAUCUUCGGAUGCAGAGGCGGCAGCCUUCGGUGGCGCGAUAGAGCCAAGGUUCUCAACUAUGACACGCAAAACGCGUGCUCCGUUGAAUGGAGUUUAUCAUG [C93A C99G]: the “polymerase ribozyme fitness (log ratio)” value was -3.88. Under GGAUCUUCUCGAUCUAACAAAAAAGACAAAUCUGCCACAAAGCUUGAGAGCAUCUUCGGAUGCAGAGGCGGCAGCCUUCGGUGGCGCGAUAUCGCCAACGUUCUUAUCUCUGACACGCAAAACGCGUGCUCCGUUGACUGGAGUUUAUCAUG [G92U C105U A107U A110C A138C] stands at most -4.2; under GGAUCUUCUCGAUCUAACAAAAAAGACAAAUCUGCCACAAAGCUUGAGAGCAUCUUCGGAUGCAGAGGCGGCAGCCUUCGGUGGCGCGAUAUCGCCAACGUUCUCAACUAUGACACGCAAGACGCGUGCUCCGUUGAAUGGACUGUAUCAUG [G92U A121G G143C U145G], -3.44. In the case of GGAUCUUCUCGAUCUAACAAAAAAGACAAAUCUGCCACAAAGCUUGAGAGCAUCUUCGGAUGCAGAGGCGGCAGCCUUCGGUGGCGCGAUAGAGCCAACGUUCUCAACUAUGACACGCAAAACGCGUGCUCCGUUGAAUGGAGUUUAUCGUG [C93A A150G], the “polymerase ribozyme fitness (log ratio)” value is -3.51. The result for GGAUCUUCUCGAUCUAACAAAAAAGACAAAUCUGCCACAAAGCUUGAGAGCAUCUUCGGAUGCAGAGGCGGCAGCCUUCGGUGGCGCGAUAGAGCCAACGUUCUCCACUAUGACACGCAAAACGCGGGCUCCGUUGAAUGGAGAUUAUCAUG [C93A A106C U127G U144A] reads at most -4.2; that for GGAUCUUCUCGAUCUAACAAAAAAGACAAAUCUGCCACAAAGCUUGAGAGCAUCUUCGGAUGCAGAGGCGGCAGCCUUCGGUGGCGCGAUAGAGGCAAGGUUCUCAACUAUGACACGCAAAACCCGUGCUCCGUUGAAUGGAGUUUAUCAUG [C93A C95G C99G G124C], at most -4.2; that for GGAUCUUCUCGAUCUAACAAAAAAGACAAAUCUGCCACAAAGCUUGAGAGCAUCUUCGGAUGCAGAGGCGGCAGCCUUCGGUGGCGCGAUAUCGCCAACGUUCGCAACUAUGACACGCAAAACGCGUGCUCCGUUGAAUGGAGUUUAUCAUG [G92U U104G], -0.858.

GGAUCUUCUCGAUCUAACAAAAAAGACAAAUCUGCCACAAAGCUUGAGAGCAUCUUCGGAUGCAGAGGCGGCAGCCUUCGGUGGCGCGAUAUGGCCAAUGUUCUCAACUAUGGCACGCAAAACGCGUGCUCCGUUGAAUGGAGUUUAUCAUG [G92U C93G C99U A113G]: the “polymerase ribozyme fitness (log ratio)” value was at most -4.2. Under GGAUCUUCUCGAUCUAACAAAAAAGACAAAUCUGCCACAAAGCUUGAGAGCAUCUUCGGAUGCAGAGGCGGCAGCCUUCGGUGGCGCGAUAUCGCCAACGUUCUCAACUAUGACACGCAAAACGCGUGCUCCGUUGACUGGAGUUUAUCAUG [G92U A138C] stands -3.95; under GGAUCUUCUCGAUCUAACAAAAAAGACAAAUCUGCCACAAAGCUUGAGAGCAUCUUCGGAUGCAGAGGCGGCAGCCUUCGGUGGCGCGAUAUCGCCAACGGUCUCAACUAUGACACGCAAAACGCGUGCUUCGUUGAAUGGAGUUUAUCAUG [G92U U101G C131U], 0.547.
